Numbering of substitutions follows the chain as printed. In names and notes the source's numbering stands.
B1: FimC_(Q19C)-FimH chaperone-adhesin complex, FimC labeled with coumarin maleimide (CPM) (complex)
chain 1: GVALGATRVIYPAGQKQECLAVTNNDENSTYLIQSWVENADGVKDGRFIVTPPLFAMKGKKENTLRILDATNNQLPQDRESLFWMNVKAIPSMDKSKLTENTLQLAIISRIKLYYRPAKLALPPDQAAEKLRFRRSANSLTLINPTPYYLTVTELNAGTRVLENALVPPMGESTVKLPSDAGSNITYRTINDYGALTPKMTGVME
chain 2: [about 300 residues not given here]
modifications: coumarin maleimide (CPM) on the cysteine at position 19
B2: FimC_(T51C)-FimH chaperone-adhesin complex, FimC labeled with coumarin maleimide (CPM) (complex)
chain 1: B1 chain 1 with C19Q, T51C
chain 2: [about 300 residues not given here]
modifications: coumarin maleimide (CPM) on the cysteine at position 51
B3: FimC_(N86C)-FimH chaperone-adhesin complex, FimC labeled with coumarin maleimide (CPM) (complex)
chain 1: B1 chain 1 with C19Q, N86C
chain 2: [about 300 residues not given here]
modifications: coumarin maleimide (CPM) on the cysteine at position 86

Columns and labels:
[1] = target: T1, FimD_(Δplug) (purified, His-tag removed) (Escherichia coli, UniProt P30130 46-878, delete residues 244-323 | N243G); test: other fluorescence titration
T1 sequence: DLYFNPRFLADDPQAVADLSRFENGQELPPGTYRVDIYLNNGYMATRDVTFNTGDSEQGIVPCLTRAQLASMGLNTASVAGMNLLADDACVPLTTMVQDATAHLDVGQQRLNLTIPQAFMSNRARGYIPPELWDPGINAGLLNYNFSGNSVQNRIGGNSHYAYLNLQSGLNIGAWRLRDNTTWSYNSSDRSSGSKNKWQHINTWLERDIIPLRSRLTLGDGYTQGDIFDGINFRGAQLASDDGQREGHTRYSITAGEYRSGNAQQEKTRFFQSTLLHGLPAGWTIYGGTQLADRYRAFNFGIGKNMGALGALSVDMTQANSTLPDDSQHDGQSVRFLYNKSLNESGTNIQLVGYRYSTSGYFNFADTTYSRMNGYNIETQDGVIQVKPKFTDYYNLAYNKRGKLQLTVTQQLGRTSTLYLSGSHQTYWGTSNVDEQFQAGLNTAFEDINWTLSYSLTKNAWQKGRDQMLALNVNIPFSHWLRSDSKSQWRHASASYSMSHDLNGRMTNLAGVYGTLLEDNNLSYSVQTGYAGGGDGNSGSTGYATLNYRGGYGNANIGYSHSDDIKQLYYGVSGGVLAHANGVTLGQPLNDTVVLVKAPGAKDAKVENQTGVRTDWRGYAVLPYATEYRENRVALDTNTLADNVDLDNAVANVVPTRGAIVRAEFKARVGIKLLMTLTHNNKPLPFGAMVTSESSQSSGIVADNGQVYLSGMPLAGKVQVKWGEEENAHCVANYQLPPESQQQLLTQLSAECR

[2] = target: T2, WT FimD usher (purified, His-tag removed) (Escherichia coli, UniProt P30130 46-878); test: other fluorescence titration
T2 sequence: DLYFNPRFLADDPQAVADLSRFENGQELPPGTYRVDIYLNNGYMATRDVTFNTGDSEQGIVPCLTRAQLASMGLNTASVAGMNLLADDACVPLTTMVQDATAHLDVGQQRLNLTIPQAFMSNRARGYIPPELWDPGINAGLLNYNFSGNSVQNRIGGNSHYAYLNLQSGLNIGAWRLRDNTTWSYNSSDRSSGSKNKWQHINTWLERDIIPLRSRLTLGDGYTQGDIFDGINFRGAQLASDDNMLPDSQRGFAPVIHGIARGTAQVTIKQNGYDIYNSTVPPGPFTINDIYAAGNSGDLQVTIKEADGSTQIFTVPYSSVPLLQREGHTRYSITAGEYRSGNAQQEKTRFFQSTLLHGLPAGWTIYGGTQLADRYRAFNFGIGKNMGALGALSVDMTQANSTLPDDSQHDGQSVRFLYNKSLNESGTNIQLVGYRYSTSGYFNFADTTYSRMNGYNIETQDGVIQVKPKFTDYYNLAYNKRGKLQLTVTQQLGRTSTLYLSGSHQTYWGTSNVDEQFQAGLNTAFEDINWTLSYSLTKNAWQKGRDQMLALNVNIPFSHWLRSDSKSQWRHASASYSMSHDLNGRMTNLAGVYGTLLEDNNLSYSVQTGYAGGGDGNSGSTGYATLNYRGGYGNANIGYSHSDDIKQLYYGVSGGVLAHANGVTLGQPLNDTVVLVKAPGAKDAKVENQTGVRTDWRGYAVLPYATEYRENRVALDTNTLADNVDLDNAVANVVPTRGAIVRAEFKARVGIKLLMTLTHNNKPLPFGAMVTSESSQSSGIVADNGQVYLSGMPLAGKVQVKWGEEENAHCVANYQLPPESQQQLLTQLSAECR

Binder	Kd [1] [nM]	Kd [2] [nM]	binding result [2]
B1	12.5	12.6	–
B2	–	–	binds
B3	–	–	binds

— paper PMC4496297 (Nature structural & molecular biology, 2015)
